Assay results from publication PMC6919601, “Identification of Plasmodium dipeptidyl aminopeptidase allosteric inhibitors by high throughput screening” (PLoS ONE, 2019).
The whole screen tested about 110,000 compounds, of which about 230 (0.21%) showed an effect of 50% or more. The list shows a part of the results.

Biological target: DPAP1 (Plasmodium falciparum, UniProt Q8IIJ9)
Assay: primary screen, percent inhibition; read by cleavage of a fluorogenic dipeptide substrate; higher = more effect of the substance
Design: species or system P. falciparum D10 trophozoite lysates; single well
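Also: 30 min substrate incubation versus DMSO and 10 µM JCP410 controls.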

DPAP1, sequence (Q8IIJ9 whole entry, looked up): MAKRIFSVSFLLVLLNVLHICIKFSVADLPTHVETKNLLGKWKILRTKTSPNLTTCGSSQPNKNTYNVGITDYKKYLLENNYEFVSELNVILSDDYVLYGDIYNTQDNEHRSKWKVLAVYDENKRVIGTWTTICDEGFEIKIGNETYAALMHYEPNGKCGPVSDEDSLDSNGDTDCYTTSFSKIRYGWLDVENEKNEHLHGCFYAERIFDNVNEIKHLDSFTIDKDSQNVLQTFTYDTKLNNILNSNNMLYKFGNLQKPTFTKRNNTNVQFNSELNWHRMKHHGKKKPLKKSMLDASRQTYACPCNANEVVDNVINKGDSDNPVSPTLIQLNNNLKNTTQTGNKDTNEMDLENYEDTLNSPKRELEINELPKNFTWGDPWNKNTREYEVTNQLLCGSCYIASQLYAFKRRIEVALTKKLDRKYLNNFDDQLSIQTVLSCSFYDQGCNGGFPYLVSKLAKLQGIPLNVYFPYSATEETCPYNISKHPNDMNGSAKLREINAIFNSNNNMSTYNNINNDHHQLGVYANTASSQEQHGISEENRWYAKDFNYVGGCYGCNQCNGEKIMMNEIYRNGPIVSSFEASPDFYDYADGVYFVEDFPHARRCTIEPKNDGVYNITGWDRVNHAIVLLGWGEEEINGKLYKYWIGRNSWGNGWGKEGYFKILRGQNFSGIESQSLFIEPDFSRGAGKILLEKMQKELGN

| SMILES | % Inhibition @ 10 uM [%] |
| --- | --- |
| CCOC(=O)/C(C#N)=C\c1c(C)cc(C)c(COC)c1C | -6.25 |
| COc1ccc(C2C(C(=O)c3ccccc3)=C(O)C(=O)N2CCCN2CCOCC2)cc1OC (stereo not shown) | -3.06 |
| CC1CN(C(=O)Nc2ccccc2)c2ccccc2-[n+]2ccsc21 (stereo not shown) | 2.27 |
| COCC(C)NCc1ccc2c(c1)OCO2 (stereo not shown) | 3.44 |
| Cc1ccc(CNC(=O)Cn2c(=O)n(Cc3ccccc3)c(=O)c3c4c(sc32)CCCC4)cc1 | -0.58 |
| Cc1ccccc1S(=O)Cc1ccc(C(=O)NCc2cccc(Cl)c2)o1 (stereo not shown) | -3.02 |
| O=C(Nc1ccccc1C(=O)NCC1CCCO1)c1ccc(Cl)cc1Cl (stereo not shown) | -1.26 |
| OC1=C2C(=Nc3ccccc3NC2c2ccncc2)CC(c2ccccc2)C1 (stereo not shown) | -4.76 |
| COc1cc(C2=NOC(C(=O)NCc3ccc(F)cc3)C2)cc(OC)c1OC (stereo not shown) | -2.16 |
| CCOC(=O)C1=C(CN2CCN(c3ncccn3)CC2)NC(=O)NC1c1ccc(OC(C)C)cc1 (stereo not shown) | -4.69 |
| CC(C)Oc1ccc(/C=N/N=C/c2ccc(OC(C)C)cc2)cc1 | 1.39 |
| O=C(c1ccc(Br)o1)N1CCN(C(=O)c2ccc(Br)o2)CC1 | 0.986 |
| CS(=O)(=O)N(CC(=O)NC1CCCC1)c1cccc(Br)c1 | 0.235 |
| Cc1ccccc1OCC(=O)Nc1ccc(C(=O)O)cc1 | 4.44 |
| S=C(NCCSCc1ccc(Cl)cc1)Nc1ccccc1 | -3.44 |
| N#CC1=C(N)OC2=C(C(=O)CC(c3ccccc3)C2)C1c1cccc(O)c1 (stereo not shown) | 3.03 |
| O=C(O)c1cc(SCCS(=O)(=O)c2ccc(Cl)cc2)ccc1Cl | -3.66 |
| COCCNC(=O)c1cnn2c(-c3ccccc3)cc(-c3ccccc3)nc12 | -1.42 |
| COc1cccc(-c2ccc3c(N)c(C(=O)Nc4ccccc4F)sc3n2)c1 | -0.425 |
| C/C(=N\Cc1ccncc1)C1=C(O)c2ccccc2C1=O | 4.55 |
| CC(C)NC(=O)c1ccc(CN2CC(=O)N3CCCCC3C2=O)cc1 (stereo not shown) | -2.77 |
| COc1ccc(NC(=O)c2cccc(Br)c2)c(OC)c1 | 0.823 |

| SMILES | % Inhibition @ 10 uM [%] |
| --- | --- |
| CCC/N=c1\c(NS(=O)(=O)c2ccc3c(c2)CCCC3)c(O)oc2ccccc12 | 4.29 |
| COc1ccc(C2CC(c3ccc(Br)cc3)=NN2C(=O)CCC(=O)O)cc1 (stereo not shown) | -4.5 |
| CCN(CC)S(=O)(=O)c1cc(S(=O)(=O)N(CC)CC)c(C)cc1C | 5.56 |
| COc1ccc(NC(=O)c2cccc(F)c2)cc1OC | -0.636 |
| COc1ccccc1/C=C/C1NC(=O)NC(C)=C1C(=O)OC(C)C (stereo not shown) | 1.63 |
| CCOCCCNC(=O)c1ccc2c(c1)c(C)c(C)n2Cc1ccc(Cl)cc1 | 0.224 |
| COc1ccccc1CCNC(=O)[C@H]1O[C@@H]2OC(C)(C)O[C@@H]2[C@H]2OC(C)(C)O[C@H]21 | 1.64 |
| O=C(CSc1nnnn1-c1ccccc1)c1ccc2c(c1)Cc1ccccc1-2 | -6.84 |
| Cc1cc2c(cc1Br)NC(=O)C21C(C#N)=C(N)Oc2cc(N)ccc21 (stereo not shown) | 4.33 |
| COC(=O)c1coc(=O)c2ccccc12 | -4.74 |
| Cc1ccc(S(=O)(=O)NCc2ccc(C(=O)O)cc2)cc1 | -5.64 |
| O=C(c1ccccc1)N1C(O)CCC12CSCC2=O (stereo not shown) | -6.7 |
| CC1CCCCN1S(=O)(=O)c1ccc(NC(=O)c2ccc(Cl)cc2Cl)cc1 (stereo not shown) | 0.231 |
| COc1ccc(-n2ncc3c(N(CCO)CCO)ncnc32)cc1 | 2.88 |
| CCOc1cccc2c1Oc1nc(-c3ccc(C(=O)OC)cc3)nc(O)c1C2 | -1.06 |
| Cc1cc(-c2ccc(C)c(S(=O)(=O)NCCSCc3ccco3)c2)on1 | -2.86 |
| O=C(NCc1nc(-c2ccccc2)no1)c1ccc(-c2ccccc2)cc1 | -5.06 |
| O=c1c(C(c2cncs2)c2c(O)oc3ccccc3c2=O)c(O)oc2ccccc12 | 3.87 |
| CCOc1ccc(-c2cc(C(=O)N(C)Cc3ccco3)[nH]n2)cc1 | 5.43 |
| CC(C)(C)c1coc2cc3oc(=O)ccc3cc12 | -4.75 |
| CC(=O)Nc1cccc(/N=C/c2c(C)nn(-c3ccc(Br)c(C)c3)c2O)c1 | -4.68 |
| COc1ccc(CN2CCN(CCCc3ccccc3)CC2)c(OC)c1OC | -5.26 |

| SMILES | % Inhibition @ 10 uM [%] |
| --- | --- |
| CC(C)n1cc(/C=C2/SC(=O)NC2=O)c2ccccc21 | -4.16 |
| O=C(O)CCc1nc(O)c2c3c(sc2n1)CCCC3 | -8.12 |
| COc1cnn(-c2ccccc2)c(=O)c1N(C)C | -1.22 |
| CC1CN(C(=O)c2ccc(COc3ccccc3Br)cc2)CC(C)O1 (stereo not shown) | -6.94 |
| Oc1nc(SC(c2ccccc2)c2ccccc2)nc(O)c1C(c1ccccc1)c1ccccc1 | 1.9 |
| Cc1ccccc1C(=O)N1CCC2(CC1)N=C(c1ccc(F)cc1)C(=O)N2 | -1.46 |
| CC1CCN(C(=O)Cn2cnc3c(oc4ccccc43)c2=O)CC1 | -5.11 |
| CCO/C(O)=C1/C(C)=NC2=C(C(=O)CC(c3ccc(OC)cc3)C2)C1c1ccccn1 (stereo not shown) | 22.7 |
| Clc1ccc(COc2ccccc2CNn2cnnc2)cc1 | 2.8 |
| CCn1c(NCc2cccs2)nc2ccccc21 | -1.66 |
| CCc1nnc2sc(-c3ccc(OC)cc3)nn12 | 3.88 |
| CCN(CC)c1ccc2cc(-c3nc4ccccc4[nH]3)c(=N)oc2c1 | -7.09 |
| CCOC(=O)c1cnc2ccc(OC)cc2c1NCc1ccccc1 | 2.17 |
| CCc1ccc(C2=C/C(=C/c3cc(OC)ccc3OC)C(=O)O2)cc1 | -0.169 |
| CCCCOC(=O)NC1CCS(=O)(=O)C1 (stereo not shown) | -0.85 |
| CCOc1ccc(CCNC(=O)C2CCC(=O)N2CCc2ccccc2)cc1OCC (stereo not shown) | -1.79 |
| Cc1ccc(C)c(OCCNC(=O)c2ccc(-c3csc(C)n3)cc2)c1 | 1.84 |
| COc1ccc(OC)c(CN2CCN(c3cccc(C(F)(F)F)c3)CC2)c1 | 3.16 |
| CCOC(=O)N1CCC(NC(=O)NCc2noc3ccccc23)CC1 | 3.28 |
| N#CCNC(=O)[C@H](Cc1cc(I)c(O)c(I)c1)NC(=O)c1ccc(I)cc1 | -4.72 |
